Assay results as given in US5441983A, “Treatment of infection by enveloped virus with calix(N)arene compounds” (Genelabs Incorporated, priority 1992, dated 1995).

System: HSV-1
Assay: Topical treatment of ocular HSV-1 infection, rabbits
Details: all topical doses
Method: In one treatment method, described in Example 18, graded topical doses of compound Y-1 were administered to the corneal regions of rabbits previously infected with HSV-1. Clinical slit lamp biomicroscopy was used to assess disease severity as measured by average epithelial disease involvement (FIG. 33A), conjunctivitis rating (FIG. 33B), iritis rating (FIG. 33C), and stromal disease (FIG. 33D).
Viral titers were recovered from tear film at days 0, 3, 5, and 7 post-inoculation and from epithelial scrapings performed on day 7 post-infection (sacrifice). Viral titers were determined by plaque reduction and multiple regression analysis, as described in Example 10. […]
On day 4 post inoculation (PI), animals were evaluated by slit lamp microscopy. […]
The concentration of Y-1 for the ascending dose tolerance study were based upon the ED90 concentrations determined in the virus yield or CPE assays. […]
Topical therapy with 0-19 μg Y-1 in 50 μl was initiated on day 4 post-inoculation (PI) and continued to day 7 PI. […] The ocular HSV-1 induced disease severity was recorded daily. […]
On day 7 PI (sacrifice), the corneal epithelium was scraped from the eyes and HSV was recovered on HFF cell monolayers. Corneal epithelial co-cultures were evaluated daily by inverted light microscopy. […]

## O=S(=O)(O)c1cc2c(O)c(c1)Cc1cc(S(=O)(=O)O)cc(c1O)Cc1cc(S(=O)(=O)O)cc(c1O)Cc1cc(S(=O)(=O)O)cc(c1O)Cc1cc(S(=O)(=O)O)cc(c1O)Cc1cc(S(=O)(=O)O)cc(c1O)Cc1cc(S(=O)(=O)O)cc(c1O)Cc1cc(S(=O)(=O)O)cc(c1O)C2 [Y-1]
  viral titer in tear film: a marked reduction of viral titer was observed in all animals
